Experimental data reported in patent US11530246B2, “Regulated synthetic gene expression systems” (TRUSTEES OF BOSTON UNIVERSITY, priority 2019, dated 2022).

B1: ZF1: 6-unit zinc finger array, SEQ ID NO: 1 (protein)
chain: SRPGERPFQCRICMRNFSEEANLRRHTRTHTGEKPFQCRICMRNFSDHSSLKRHLRTHTGSQKPFQCRICMRNFSQSANLLRHTRTHTGEKPFQCRICMRNFSDPSSLKRHLRTHTGSQKPFQCRICMRNFSQQTNLTRHTRTHTGEKPFQCRICMRNFSDATQLVRHLRTHLRGS
B2: ZF10: 6-unit zinc finger array, SEQ ID NO: 3 (protein)
chain: SRPGERPFQCRICMRNFSRRHGLDRHTRTHTGEKPFQCRICMRNFSDHSSLKRHLRTHTGSQKPFQCRICMRNFSVRHNLTRHLRTHTGEKPFQCRICMRNFSDHSNLSRHLKTHTGSQKPFQCRICMRNFSQRSSLVRHLRTHTGEKPFQCRICMRNFSESGHLKRHLRTHLRGS

Test system: synTF-responsive reporter constructs
Assay: synTF library activity on cognate and non-cognate reporters, HEK293FT reporter lines
Assay type: cell-based, human
Details: 4 tandem DBMs upstream of minimal promoter
Source text: Described herein is a workflow for creating 6-unit ZF arrays that target defined 20-bp DBMs, a length that in principle provides unique addressability in the human genome. The workflow leverages modular assembly and functional selection of 6-unit arrays from of 2-unit building blocks. Using this approach, a library of eleven 6-unit arrays was created with binding specificities chosen to maximize orthogonality to the human genome (see e.g., US Patent Publication US20180057838, the content of which is incorporated herein by reference in its entirety). We fused these arrays to human transcriptional effector domains (p65 activation domain, KRAB/HP1a silencing domains) to create humanized minimal synTFs (see e.g., FIG. 1A). To test their activity, corresponding HEK293FT reporter lines were generated harboring synTF-responsive reporter constructs, composed of 4 tandem 20-bp DBMs upstream of a minimal promoter driving transcription of a fluorescent protein (see e.g., FIG. 1B). […] Next, RNA-seq measurements were used to map the impact of the synTFs on genome-wide transcription. synTF regulation profiles were highly specific, showing minimal effects on native transcript profiles (see e.g., FIG. 1E-1G). […] A rigorous framework was used to perform this analysis, including assessing profiles against 3 independent biological references. […]

Molecule | activation of cognate reporter
B1 | exceptionally high in vivo activity
B2 | exceptionally high in vivo activity
